The source of these data is article PMC3751744.

Protein sequences, listed by entry. Tags and fused reporters are not part of them.
UniProt P49789: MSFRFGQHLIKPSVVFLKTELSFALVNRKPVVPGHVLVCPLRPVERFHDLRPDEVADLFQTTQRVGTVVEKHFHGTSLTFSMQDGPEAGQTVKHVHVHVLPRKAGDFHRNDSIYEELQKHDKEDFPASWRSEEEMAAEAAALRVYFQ

Results are given in words; binding and its absence hold for the method and conditions named. Binding seen in cells or lysates may run through a third protein. Where a sequence is shown, tags or fusion partners need not be part of it.

The assay concerns the target Flag-Fhit (human) (UniProt P49789). The assay can be described thus: co-IP; HEK293 cells co-transfected, cross-linked with 0.5 mM DSP, lysed in RIPA buffer; lysates with anti-Flag affinity agarose gel at 4°C for 4 h; Western blot; Src, HA-Gγ2 or untagged Fhit co-expressed in some samples. (In general: Immunoblotting shows a protein as a band on a membrane.)

B1: HA-RGS16 (protein, UniProt O15492 1-202)
chain: MCRTLAAFPTTCLERAKEFKTRLGIFLHKSELGCDTGSTGKFEWGSKHSKENRNFSEDVLGWRESFDLLLSSKNGVAAFHAFLKTEFSEENLEFWLACEEFKKIRSATKLASRAHQIFEEFICSEAPKEVNIDHETHELTRMNLQTATATCFDAAQGKTRTLMEKDSYPRFLKSPAYRDLAAQASAASATLSSCSLDEPSHT
Take B1: the binding result was “no binding”.

B2: HA-RGS19 (protein, UniProt P49795 1-217)
chain: MPTPHEAEKQITGPEEADRPPSMSSHDTASPAAPSRNPCCLCWCCCCSCSWNQERRRAWQASRESKLQPLPSCEVCATPSPEEVQSWAQSFDKLMHSPAGRSVFRAFLRTEYSEENMLFWLACEELKAEANQHVVDEKARLIYEDYVSILSPKEVSLDSRVREGINKKMQEPSAHTFDDAQLQIYTLMHRDSYPRFLSSPTYRALLLQGPSQSSSEA
In the case of B2, the binding entry was “no binding”.
